Results on 57 compounds are retold here after PubChem BioAssay AID463173 (ICCB-Longwood Screening Facility, Harvard Medical School, 2010).

SMILES strings stand for the structures. Out of some 52,000 compounds screened, about 1,700 (3.3%) were called active. Rule as the data show it: active = survival mostly below about 52% (no sharp cut-off); inactive = mostly above about 56%. The list shows a part of the results.

In this assay the test system is Wild type. Description: S. aureus survival, RN4220 and DeltatarO strains – OD600, teichoic acid synthesis inhibitors, primary screen (AID 463173). As to conditions: S. aureus RN4220 wild type/DeltatarO growth, OD600, 18 h, stronger effect = lower value, screened at 18.75 µg/mL (by protocol).
For `O=C(CSc1nncn2c1cc1sccc12)Nc1ccc(Br)cc1F`, the survival was inactive: 57%.

Turning to `CCOC(=O)c1c(C)oc2nc(C)nc(NCc3ccc(OC)cc3OC)c12`, the survival was inactive: 89%.

`O=C(Nc1cc(C(F)(F)F)ccc1Cl)c1nc2ccccc2nc1N1CCCCC1`: the survival was inactive: 80%.

For `O=C(Cn1c(=O)nc(-c2ccccc2)c2ccccc21)NCc1ccc(Cl)cc1`, the survival is inactive: 72%.

On to `COc1ccc(Cl)cc1C(=O)N1CCCC1`, for which the survival is inactive: 99%.

With `CCc1ccc(NC(=O)CCn2nc(C)c(S(=O)(=O)N3CCCCC3)c2C)cc1`, the survival was inactive: 121%.

As for `COc1ccc2c(C)cc(SCC(=O)Nc3nsc(-c4ccccc4C)n3)nc2c1`, the survival was active: 1%.

Take `CCOC(=O)c1ccccc1NC(=O)Cn1c(=O)n(-c2cccc(C)c2)c(=O)c2c1c1cc(C)ccc1n2C`: the survival was inactive: 59%.

For the compound `CCOc1ccc(Cn2c(CNS(=O)(=O)c3ccc(Cl)s3)nc3cccnc32)cc1`, the survival was inactive: 99%.

Turning to `COc1cccc(N2CCN(S(=O)(=O)c3ccc(-n4cnnn4)cc3)CC2)c1`, the survival is inactive: 124%.

On to `CCOc1ccccc1NC(=O)C1CCN(S(=O)(=O)c2ccc3c(c2)CC(C)N3C(C)=O)CC1` (configuration not stated), for which the survival was inactive: 87%.

Take `O=C(C1CCCCC1)N(Cc1nc2sc3c(c2c(=O)[nH]1)CCCC3)Cc1cccs1`: the survival was inactive: 111%.

As for `CC(C)(C#N)Nn1cnnc1`, the survival is inactive: 112%.

For the compound `COc1cc(C2C(C(=O)Nc3ccccc3C)=C(C)Nc3ncnn32)ccc1OCC(N)=O` (configuration not stated), the survival was inactive: 85%.

Consider `O=C(NCC(c1ccc2c(c1)OCO2)N1CCOCC1)c1cccc(Cl)c1` (configuration not stated), for which the survival is inactive: 91%.

Consider `Nc1ccc(N2CCN(c3ncc(C(F)(F)F)cc3Cl)CC2)c(C(F)(F)F)c1`, for which the survival is active: -14%.

Turning to `CCN(CC)C(=O)CSc1nc(-c2ccco2)cc(C(F)(F)F)c1C#N`, the survival was inactive: 101%.

Consider `O=C(NCc1ccc(Cl)cc1)C(=O)NCC(c1cccs1)S(=O)(=O)c1cccs1` (configuration not stated), for which the survival is inactive: 72%.

On to `COCC(=O)NCc1nc2cccnc2n1Cc1ccc(F)cc1`, for which the survival is inactive: 75%.

For the compound `N#CSc1cnc(NC2CCCCC2)s1`, the survival is active: 2%.

With `Cc1ccc(NC(=O)CSc2ccc(-c3cccs3)nn2)cc1Cl`, the survival was inactive: 109%.

In the case of `CN(c1ccccc1)S(=O)(=O)c1ccc(NC(=O)c2cc(=O)c3ccccc3o2)cc1`, the survival was inactive: 75%.

On to `O=C(CCn1cnnn1)Nc1ccc(F)cc1`, for which the survival was inactive: 71%.

`Cc1oc(C)c2c(=O)cc(-c3ccc4c(c3)OCO4)cc(OC(=O)c3cccc(Br)c3)c12`: the survival is inactive: 113%.

Consider `COCc1cc(C)nc(SCC(N)=O)c1C#N`, for which the survival was inactive: 99%.

In the case of `COc1ccc(Nc2cc(C(=O)NCCCN3CCN(c4ccc(OC)cc4)CC3)c3ccccc3n2)cc1`, the survival is inactive: 80%.

On to `CC(C)(C)C(=O)NC1CCN(C(=O)NCc2ccccc2)CC1`, for which the survival is inactive: 102%.

`OCc1nc2ccc(-c3ccc4nc(CO)[nH]c4c3)cc2[nH]1`: the survival was inactive: 99%.

In the case of `Cc1ccc(Cn2c(CNS(=O)(=O)c3ccc(F)c(Cl)c3)nc3cccnc32)cc1`, the survival was inactive: 134%.

`COc1ccc(-n2ncc(C(=O)NCCc3ccsc3)c2C2CCN(C(=O)OC(C)(C)C)CC2)cc1`: the survival is inactive: 83%.

On to `COc1ccccc1C(=O)Nc1ccc(N2CCN(S(C)(=O)=O)CC2)cc1`, for which the survival is inactive: 103%.

With `Cc1ccccc1CCNC(=O)c1ccc2c(c1)nc1n2CCC(C)C1` (configuration not stated), the survival is inactive: 72%.

For the compound `COc1ccccc1C1Nc2ccccc2-n2c(-c3ccccc3)c3c(=O)n(C)c(=O)n(C)c3c21` (configuration not stated), the survival was inactive: 65%.

For the compound `CC(=O)Nc1ccc2nc3c(=O)[nH]c(=O)[nH]c3nc2c1`, the survival was inactive: 90%.

On to `Cc1noc(-c2ccc(N3CCCCC3)c([N+](=O)[O-])c2)n1`, for which the survival is inactive: 78%.

For `CCCN1CC=C2C(C#N)=C(N)C(C#N)(C#N)C(c3ccc(F)cc3F)C2C1` (configuration not stated), the survival is inactive: 104%.

Turning to `Cc1cc(NC(=O)c2cccc(Cl)c2)ccc1-c1cc2ccccc2oc1=O`, the survival was inactive: 89%.

Turning to `CCCCc1nn2c(=O)cc(COC(=O)c3ccc(NC(=O)c4ccccc4C)cc3)nc2s1`, the survival was inactive: 93%.

Take `Cc1cc(F)ccc1NS(=O)(=O)c1ccc(-n2cccn2)cc1`: the survival was inactive: 75%.

`Cc1ccc(CNS(=O)(=O)c2ccc3[nH]c4c(c3c2)CCCC4)cc1`: the survival was inactive: 82%.

`COc1ccc(-c2noc(-c3ccc(N4CCN(c5ccccc5)CC4)c([N+](=O)[O-])c3)n2)cc1OC`: the survival is inactive: 90%.

For the compound `CCOC(=O)C1(C)C=C(Nc2cccc(C(=O)O)c2)C(=O)N1c1cccc(C(=O)O)c1` (configuration not stated), the survival was inactive: 89%.

For `CCOC(=O)c1sc2sc(C(=O)OCC)c(CN(CC)CC)c2c1CN(CC)CC`, the survival is inactive: 94%.

As for `Cc1ccc(CCNC(=O)c2ccc3c(c2)nc2n3CCC(C)C2)cc1` (configuration not stated), the survival is inactive: 71%.

With `COc1cc2c(cc1OC)C(COc1ccccc1OC)N(C(=O)COc1ccc(Cl)cc1)CC2` (configuration not stated), the survival is inactive: 60%.

With `O=C(C1CCN(c2ncnc3c2nc2n3CCCCC2)CC1)N1CCN(c2cccc(Cl)c2)CC1`, the survival was inactive: 57%.

Regarding `COc1ccc(OC)c(CNC(=O)Cc2ccc(NC(=O)N3CCSc4ncccc43)cc2)c1`, the survival was inactive: 64%.

Regarding `O=C1CS(=O)(=O)C2(C(=O)N(Cc3ccccc3)c3ccccc32)N1c1ccccc1` (configuration not stated), the survival was inactive: 132%.

Consider `NC(=O)c1sc2nc3c(cc2c1N)CCCCC3`, for which the survival is inactive: 105%.

Consider `Cc1cc(C)n(CCc2nc3c4ccccc4nc(N4CCN(c5ccccc5)CC4)n3n2)n1`, for which the survival is inactive: 83%.

Regarding `CC(=O)NC1(c2ccccc2)CCN(CC(=O)Nc2c(C)n[nH]c2C)CC1`, the survival was inactive: 112%.

For the compound `Cc1ccc(OC(=O)CSc2nnc(-c3ccco3)n2-c2ccccc2)cc1`, the survival is inactive: 98%.

Regarding `COc1cccc(CNC(=O)C2CCCCN2S(=O)(=O)c2ccc(F)cc2)c1` (configuration not stated), the survival was inactive: 22%.

Take `COc1ccc(/C=C/C(=O)Nc2ccc3nc4c(c(Nc5ccccc5OC)c3c2)CCCC4)cc1`: the survival is inactive: 93%.

`O=C(c1ccc2c(c1)N(Cc1cccc(F)c1)C(=O)c1ccccc1S2)N1CCOCC1`: the survival is inactive: 68%.

`Cc1ccc(S(=O)(=O)c2nnn3c2nc(N2CCN(c4ccccc4F)CC2)c2cc(Cl)ccc23)cc1C`: the survival was inactive: 89%.

Regarding `Cc1ccc(S(=O)(=O)c2nnn3c2nc(N2CCCC2)c2sccc23)cc1C`, the survival is inactive: 83%.
